Among the data in paper PMC7819943, “Rice protein-binding microarrays: a tool to detect cis-acting elements near promoter regions in rice” are binding signal values, retold here.

The list shows a part of the results.

The target in the assay is T1, OsWOX13 (Oryza sativa, UniProt Q5QMM3 1-267).
T1 sequence: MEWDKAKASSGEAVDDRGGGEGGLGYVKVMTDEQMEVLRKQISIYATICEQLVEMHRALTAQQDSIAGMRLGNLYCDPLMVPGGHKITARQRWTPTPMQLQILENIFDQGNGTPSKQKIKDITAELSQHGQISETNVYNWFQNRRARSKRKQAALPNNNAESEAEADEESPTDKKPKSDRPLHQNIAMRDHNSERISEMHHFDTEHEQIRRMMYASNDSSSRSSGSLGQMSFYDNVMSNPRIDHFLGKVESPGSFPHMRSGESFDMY
The assay can be described thus: protein-binding microarray (RPBM); PBS, 2% BSA, 51.3 ng/ul salmon testes DNA, 50 uM zinc acetate, 200 nM TF, 25 C, 1 h; high values mean tight binding. To be noted: protein: recombinant; tags: N-terminal polyhistidine and DsRed monomer fusion (pET32a); label: CyDye5-dUTP incorporated in the synthesized complementary strand; 3' TTTTT single-stranded linker to array surface; dsDNA, one strand shown. The procedure, abridged:
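Polyhistidine-tagged DsRed fusions of transcription factors, joined at the N-terminus, were expressed in E. coli BL21-CodonPlus and isolated on Ni–NTA. They were incubated at 200 nM for 1 h at 25 °C on a custom Agilent array, double-stranded and BSA-blocked, in PBS with 2% BSA, salmon testes DNA and 50 µM zinc acetate. The binding signal is per-feature fluorescence intensity (arbitrary units) read on an Axon 4000B scanner after washing.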
Take “CAATCTTTGATTAGTTGGTTGCGTCTCTAGGCTGCAGCAACGGAGTCACCTAGTGCAG”: the binding signal was 4290 fluorescence intensity (a.u.).
To “TTAAATTTATACCCCACTTATATCTCACTTACACATCACTCGGAGTCACCTAGTGCAG” belongs 7930 fluorescence intensity (a.u.); to “TATATAAATCAATTTAGCCATGAAGGATATTTCGTTGAAGCGGAGTCACCTAGTGCAG”, 10400 fluorescence intensity (a.u.); to “AGGTGACGGAAAATTTATAAAATTTCAGACGCCTAAAATGCGGAGTCACCTAGTGCAG”, 5920 fluorescence intensity (a.u.).
To “ATGTTAATGCAAAATAAATTAAATACATAGCAAGGTACTACGGAGTCACCTAGTGCAG” belongs 11200 fluorescence intensity (a.u.); to “CTATTAGATTGCAGGTTTCGTGGCTAGATTAGGCTTTAGCCGGAGTCACCTAGTGCAG”, 8360 fluorescence intensity (a.u.).
The figure for “CTTGACTGACCACTGCAACTTCGTCTCCTCTCCCCTTAAACGGAGTCACCTAGTGCAG” is 15400 fluorescence intensity (a.u.).
In the case of “ATAAGTGACAGCCCTGTTATCTTGAATGTGGACTGTGACACGGAGTCACCTAGTGCAG”, the binding signal was 3920 fluorescence intensity (a.u.).
With “AACATCAAGATTGGAGAACAGGATTAGCTGAAGTTAGACGCGGAGTCACCTAGTGCAG”, the binding signal was 12800 fluorescence intensity (a.u.).
To “TGTTATTGATTTCTATATAATACATTGGAGTTTCAAAACTCGGAGTCACCTAGTGCAG” belongs 22700 fluorescence intensity (a.u.); to “GGTTAGGGTTTGGGGTGGGGAGGGGTGGATGCGCGTGGGCCGGAGTCACCTAGTGCAG”, 13700 fluorescence intensity (a.u.).
Consider “TATAACCTTAAATTTTCTATCATACATCAAACACATGTTTCGGAGTCACCTAGTGCAG”, for which the binding signal is 3380 fluorescence intensity (a.u.).
To “TCAATTGTTCTTAATTTGACAAGGCTAATGCTTACATTTTCGGAGTCACCTAGTGCAG” belongs 5380 fluorescence intensity (a.u.).
To “CAACGCGGCTGATTGTGATTATGGTTAGAATTGTGTGTTTCGGAGTCACCTAGTGCAG” belongs 11400 fluorescence intensity (a.u.).
The figure for “CCTCTCCGAGATTAGTAATTTTCATTGCTATCGAGAGAGCCGGAGTCACCTAGTGCAG” is 3860 fluorescence intensity (a.u.); for “GTGATTGGCGTAGACGAGAGGGTTGAATGAGTTCTGGCAACGGAGTCACCTAGTGCAG” it is 33300 fluorescence intensity (a.u.); for “ACAAGATAGATTAAACTAGTTTTATATTAATATGCATGCTCGGAGTCACCTAGTGCAG” it is 28700 fluorescence intensity (a.u.).
“ACATAATTAATGCTCCCTTAACATGTTGATCATACAATTACGGAGTCACCTAGTGCAG”: the binding signal was 18500 fluorescence intensity (a.u.).
Turning to “AAGTTAATGAGATGTCTATAGCATTAAATAAGCTGTCATCCGGAGTCACCTAGTGCAG”, the binding signal is 5910 fluorescence intensity (a.u.).
To “ACTAAACAGATTTTCTTTAAAGTTTATGCAGAAAAGTTTCCGGAGTCACCTAGTGCAG” belongs 6910 fluorescence intensity (a.u.); to “TAGATTGCTTGCAGATTAAATAATTTTCTTTTATGGTGATCGGAGTCACCTAGTGCAG”, 11700 fluorescence intensity (a.u.).
With “GTAAATCACTTGATCGATCCATCCATCCATACAATGTGCACGGAGTCACCTAGTGCAG”, the binding signal is 3360 fluorescence intensity (a.u.).
The figure for “TAGGAATGTCAATTAAATTCTTCAAGTCATGTTCGTGGTTCGGAGTCACCTAGTGCAG” is 15100 fluorescence intensity (a.u.); for “ATGACCAATTTTCAGGAAATTTAACGGCGGTTTTATTTCCCGGAGTCACCTAGTGCAG” it is 4040 fluorescence intensity (a.u.).
As for “CATCAAATTACGGAAGCCATAATCCAAGGCCATGGAATCACGGAGTCACCTAGTGCAG”, the binding signal is 4000 fluorescence intensity (a.u.).
The figure for “TTGACATTCTTTATTTATTTAAATTAATTTAGATAAAGTTCGGAGTCACCTAGTGCAG” is 13000 fluorescence intensity (a.u.).
To “CCTTAATTATAATCCATGTAGACGTCAACGTATGATAAAGCGGAGTCACCTAGTGCAG” belongs 34000 fluorescence intensity (a.u.); to “AGAGATGAGATTAGGATGATTGGCATGTGAGCTGATATTTCGGAGTCACCTAGTGCAG”, 32300 fluorescence intensity (a.u.); to “GATGTAATTTCTTAGAATTGAGCGCTTGTCAATACTTATTCGGAGTCACCTAGTGCAG”, 10100 fluorescence intensity (a.u.).
The figure for “AAATGGCCGTTGATTGACTTGAGGAGAAATAGTTCTTCCTCGGAGTCACCTAGTGCAG” is 36300 fluorescence intensity (a.u.).
As for “TGTAAATTGTTTTCTATTTGTTAATATCAAGTAGCACACACGGAGTCACCTAGTGCAG”, the binding signal was 12800 fluorescence intensity (a.u.).
To “AAAATTATTAGCACATGATTAATTAAGTTTTAATTAATACCGGAGTCACCTAGTGCAG” belongs 22700 fluorescence intensity (a.u.); to “GAGTATATATGACATGTCTAATTGAGGGTGTCTAACGTAACGGAGTCACCTAGTGCAG”, 7540 fluorescence intensity (a.u.).
To “TCTGATGGATAAGGTCAGTTGGGAATTCTTCAAACTTCAACGGAGTCACCTAGTGCAG” belongs 12600 fluorescence intensity (a.u.); to “AATAATAGAAGATTAGCTATTACATTGGTTATAAATGATTCGGAGTCACCTAGTGCAG”, 11200 fluorescence intensity (a.u.).
The figure for “GCAAAATAAATATAGATAGAAAATTAGGATTTATGTCAAGCGGAGTCACCTAGTGCAG” is 5930 fluorescence intensity (a.u.); for “GTCATTTGATTTATTTTACATATTCTCTAGATGGCTGTGACGGAGTCACCTAGTGCAG” it is 6590 fluorescence intensity (a.u.); for “AAAATAGTTAATACTCAATTAATCATGAGCTAATGGCTCACGGAGTCACCTAGTGCAG” it is 9240 fluorescence intensity (a.u.).
Consider “GTTAATTGGCCTAACGTCCTAAACTGGACAACGCGCATTGCGGAGTCACCTAGTGCAG”, for which the binding signal was 37200 fluorescence intensity (a.u.).
The figure for “CAACCACCTCATCATCATCATTATAATCAAGATCATTACCCGGAGTCACCTAGTGCAG” is 3440 fluorescence intensity (a.u.).
To “CCGTATAAATTGCCTGTATGCTAAATAGAACCACTTTACACGGAGTCACCTAGTGCAG” belongs 9050 fluorescence intensity (a.u.); to “GGCAAATTAGCTGGCTAAGCTGGCTATTACTAGTAGCTTTCGGAGTCACCTAGTGCAG”, 11500 fluorescence intensity (a.u.).
